Drawing on publication PMC12136788, this text covers binding signal for 22 molecules.

Sequences and labels used below:
T1: UNK ZnF1-6 (called full-length) (human, UniProt Q9C0B0 30-357)
T1 sequence: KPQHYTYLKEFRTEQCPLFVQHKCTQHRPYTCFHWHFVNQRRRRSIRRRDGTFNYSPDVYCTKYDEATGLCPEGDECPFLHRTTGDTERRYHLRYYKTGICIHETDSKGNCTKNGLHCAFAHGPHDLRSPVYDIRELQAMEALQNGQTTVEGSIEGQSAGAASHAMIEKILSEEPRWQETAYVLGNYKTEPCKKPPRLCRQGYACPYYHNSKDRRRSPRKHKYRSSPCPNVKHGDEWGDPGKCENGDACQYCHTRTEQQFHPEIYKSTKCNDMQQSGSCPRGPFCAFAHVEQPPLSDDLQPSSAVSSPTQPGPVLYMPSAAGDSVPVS

B1: chr6:149811313:149811414:+|3pUTR|ENSG00000120265|msi1|total|mutant (ssRNA)
RNA: GGGAGUUCUACAGUCCGACGAUCUGUUUCUAAUUUGCUGCUGAUAAUGUAUAUGAACUUAACAUGCUGUGUAAGCUGUGUCCCCGUUCUUGAACAGUUUAUGCAGUGCUGCUUUGCCAAAUAAAGUUAAAAGUAAAAGAGGCACAACAGAGGAUUGAGCAUCA
B2: chr12:52170242:52170446:-|3pUTR|ENSG00000167767|msi1|total|mutant (ssRNA)
RNA: GGGAGUUCUACAGUCCGACGAUCUGGCCCUCCCCUCCUUGGCAUUCAUGGGGGAGCCCAGGAACCCCCCACACCUAUGGGGUCCGAGCUCCUCCUUUCUUCUCACUCCUUCCCCUUCCUCCCUCCAUGCCCACUCCCCCUGCCCAACAGAGGAUUGAGCAUCA
B3: ENSG00000075240:stop:overlap|stop_codon|ENSG00000075240|stop_codon|NA|stop_codon (ssRNA)
RNA: GGGAGUUCUACAGUCCGACGAUCAGACCAUUCUCAGCCAGUACAUCAAGAUCACCUCAGCGGCAGCGUCUGGCGGGGACAGCUAGUAUUGACUUGCCCAGGACGUUGCUGGAAUUUUCUUUUUCUUUUUCUUUUUCUUUUUUUCAACAGAGGAUUGAGCAUCA
B4: chr19:10683396:10683509:+|CDS|ENSG00000129351|unk|total|mutant (ssRNA)
RNA: GGGAGUUCUACAGUCCGACGAUCGUUCCAAGGUGCUGGUUCCAACAAAAAGGUGGCGAAGGCCUACGCUGCUCUUGCUGCCCCCGAAAAGCUUUUCCCUGACACCCCUCUCGCCCUUGAUGCCAACAAAAAGAAGAGAGCCCCCAACAGAGGAUUGAGCAUCA
B5: chr1:227780961:227781062:+|3pUTR|ENSG00000143740|unk|FALSE|unique (ssRNA)
RNA: GGGAGUUCUACAGUCCGACGAUCCCUGGAAGAGGCCGCCCUCGUCUUGUCUCGGCUCCCUUUCAUGGACAGACUGGCCUUCUUAGCUGUACUAUAAAUUUGUGAGUGAAGUUAGAGCCCAGCUCACUUAGCCAGCUCACUUUGCAACAGAGGAUUGAGCAUCA
B6: chr7:6023389:6023508:+|CDS|ENSG00000106305|unk|FALSE|unique (ssRNA)
RNA: GGGAGUUCUACAGUCCGACGAUCGUUCUCUCUGUUUGGCCAGAAGCAUAAUGCUGUCAACGCAACCCUUAUAGAUAGCUGGGUAGAUAUUGCGAUUUUUCAGUUAAAAGAGGGAAGCAGUAAAGAAAAAGCCGCUGUUUUCCGCAACAGAGGAUUGAGCAUCA
B7: ENSG00000107863:be:win_1251|CDS|ENSG00000107863|bound_else_gene|NA|bound_elsewhere_windowed (ssRNA)
RNA: GGGAGUUCUACAGUCCGACGAUCAGCAUCUCAAAGCACGACAGAUUAUAACCAGGUCGUCCCCAACCGCACUACUUUGCAGGGACGACGUCGAAGCACCUCUCAUGAUCGAGUGCCCCAGUCUGUCCAGAUACGGCAACGCAGCAACAGAGGAUUGAGCAUCA
B8: chr12:105021166:105021267:-|3pUTR|ENSG00000136010|unk|total|mutant (ssRNA)
RNA: GGGAGUUCUACAGUCCGACGAUCAGUCAGACAGUGUCACUUCACUCGUCUGUUUAAAACCUUUCAAUGGCCCCCAUUUCACGCCGACCAAAGUCCAACGUAUUUACCUGGCCUACUGAUCUUGCUCCCCGCUACCUCUGACCUCAACAGAGGAUUGAGCAUCA
B9: chr3:48658964:48659065:-|CDS|ENSG00000008300|msi1|total|mutant (ssRNA)
RNA: GGGAGUUCUACAGUCCGACGAUCCGAUGUCUCCGACCACCUCUUCUACUCCUUUGAGCGUGGCAAUGAGCUGCAGCUGCUGGCCGUCAACCAGACCAGUGGGGAGCUGCGACUCAGCCGAAAGCCCGACAAUAACCGCCCACUCAACAGAGGAUUGAGCAUCA
B10: ENSG00000070961:be:win_3601|CDS_3pUTR|ENSG00000070961|bound_else_gene|NA|bound_elsewhere_windowed (ssRNA)
RNA: GGGAGUUCUACAGUCCGACGAUCAACAAGUCUGCUACCUCUUCAUCCCCAGGAAGCCCACUACAUAGUUUGGAAACAUCACUCUGAUUGUAAGCUGAAUGUUAACACACUAGCUGCAUUGUAAAGAAACAAAUUGAAACUGGGCAACAGAGGAUUGAGCAUCA
B11: ENSG00000198589:be:win_1051|CDS|ENSG00000198589|bound_else_gene|NA|bound_elsewhere_windowed (ssRNA)
RNA: GGGAGUUCUACAGUCCGACGAUCGCAGAUGCUAAUAGAGUAUUCUGUGGUCAGAUGACUGCAGUUUACCUUUUCAGUGAAGCUCUAAAUGCAGCUCAGAUAUUUGCUAUUUAUCAGUUGGGCCUGGGAUACAAGGGUACAUUUCAACAGAGGAUUGAGCAUCA
B12: chr5:154898482:154898583:-|CDS|ENSG00000082516|unk|FALSE|unique (ssRNA)
RNA: GGGAGUUCUACAGUCCGACGAUCUUUGGCCAAAAAGGGGGAUGCGGCAUCACUUAGAACGGCUGCAGAGUUGGCUGCCAUCGUAGGAGAGGAUGAGUUGUCUGCUUCCCUGGCUCUCAGAUGUGCCCAAGAGCUGCUUCUGGCCAACAGAGGAUUGAGCAUCA
B13: chr16:89696356:89697333:-|three_prime_utr|ENSG00000158792|control|control|control (ssRNA)
RNA: GGGAGUUCUACAGUCCGACGAUCAGGAGCCUUUCCACAUUUCCCCACCCUCGGAACCCAGACGCAUGCCCACAUGUGCUGGGUAGAGGGGUCCAGCCUGUUCCAGCCAGUGCCUGAACCUGUCCCUGAGAAGGACCCUGUGCCCAACAGAGGAUUGAGCAUCA
B14: chr12:120444061:120444162:-|3pUTR|ENSG00000170855|unk|total|mutant (ssRNA)
RNA: GGGAGUUCUACAGUCCGACGAUCAAUUGUCAACCUGCAUAUCCUAAAAAUGUCAAAAUGCUGCAUCUGGUUAAAUGUCGGGGCCGGGGGGAAGCUGAAGGUGCUCGCUUCAUUUGCCUUGUUUACUCAUCCUGCCCUGUAAUGCAACAGAGGAUUGAGCAUCA
B15: chr3:66380370:66380471:-|CDS|ENSG00000144749|msi1|total|mutant (ssRNA)
RNA: GGGAGUUCUACAGUCCGACGAUCCGGUCAAGUGGGGGUCUGACAGGUUCGUUCUUUCCUUGCCGGGGAUUCUUCCUGGACUUCCGCAAGGUUGUAUCACCCGGACUCCACAGAGCUACAGCCUGCAUCUUCAUUAACUUCAGGCAACAGAGGAUUGAGCAUCA
B16: chrY:12776687:12776788:+|CDS|ENSG00000114374|msi1|total|mutant (ssRNA)
RNA: GGGAGUUCUACAGUCCGACGAUCGUUUUUGAUGGUGACAAAAACAGCAUUAAUUGUGCAAGACAAGAAGCCAUUCGAAUGGUCCGAGUAUUAACUGUUAUAAAAGAGUACAUUAAUGAAUGUGACAGUGAUUAUCACAAGGAACAACAGAGGAUUGAGCAUCA
B17: ENSG00000107863:be:win_2701|CDS|ENSG00000107863|bound_else_gene|NA|bound_elsewhere_windowed (ssRNA)
RNA: GGGAGUUCUACAGUCCGACGAUCUCUAGUCUGAAGGGAAUCAAGAUCGCAGACAGCCAAAAGUCAUCAGAAGACUCUGGGUCCAGAAAAGAUUCUUCCUCAGAGGUCUUCAGUGAUGCUGCCAAGGAAGGGUGGCUUCAUUUCCAACAGAGGAUUGAGCAUCA
B18: ENSG00000107863:be:win_4201|CDS|ENSG00000107863|bound_else_gene|NA|bound_elsewhere_windowed (ssRNA)
RNA: GGGAGUUCUACAGUCCGACGAUCAAGGAUCAGUAUAGCAGGGAACUGCUUGUGUCCUCCAUCUUUGCAGCUGCUAGUCGCAAGAGGAAGAAGCCGAAAGAAAAAGCACAGCCUAGCAGCUCAGAAGAUGAACUGGACAAUGUACAACAGAGGAUUGAGCAUCA
B19: chr1:35359206:35359314:+|CDS|ENSG00000146463|unk|total|mutant (ssRNA)
RNA: GGGAGUUCUACAGUCCGACGAUCAAAGACUUUCCUAAACAAUUUGAUCAGGUUUCUGUCUUUAAAUCAAUACGGAAAGAUUUCCGUCCCGUAAGAGAAAACAGCAAAGAGACAUUUUCUGGAAAGGAGAAAAACCGAGACCUACAACAGAGGAUUGAGCAUCA
B20: chr10:68791452:68791550:+|3pUTR|ENSG00000060339|msi1_unk|total|mutant (ssRNA)
RNA: GGGAGUUCUACAGUCCGACGAUCCCCGCCUUCAAAUUAUUAAACACUCCUUGAGUGAAAUAAUUUUGCAUUGCAAAGUGUUUCCGGAUGAACUUUGUUACCGUUUUAACUCCAAUAAAGUUCAUCAGUUUAAUUGACUGCCGUCAACAGAGGAUUGAGCAUCA
B21: chr2:105361111:105361195:-|3pUTR|ENSG00000115641|msi1_unk|FALSE|overlapping (ssRNA)
RNA: GGGAGUUCUACAGUCCGACGAUCCUUUCUCACCCAGGCAAUCUUGCCUUCUGGUUUCUUCCAGCCACAUUGAGACUUUCUUCUAGUGCUUUUCAGUGAUACUCACGUUUGCUUAAACCCUUUAGUGCUUUGUGAUAGUUCAGUCAACAGAGGAUUGAGCAUCA
B22: chr4:7762510:7762611:-|3pUTR|ENSG00000196526|msi1|FALSE|unique (ssRNA)
RNA: GGGAGUUCUACAGUCCGACGAUCGUGCAAUAUUUCUUGGAGAAUUUGGAUGCCUAAGGCAUAAAGGAAAAAAACAGAGUUCAUAGUUUGAGCUGGUAUUUACCCCCUGGGUUUAAAAAUCAGAUUAACUUCUUGGUCUCCCGGCAACAGAGGAUUGAGCAUCA

Some of the results follow.

The target in this assay is T1, UNK ZnF1-6 (called full-length). Kind of assay: nsRBNS (natural sequence RNA bind-n-seq); RBNS binding buffer (assumed for nsRBNS): 25 mM Tris pH 7.5, 150 mM KCl, 3 mM MgCl2, 0.01% Triton X-100, 500 ug/ml BSA, 20 U/ml SUPERase-In, 4 C; UNK is unkempt and MSI1 is Musashi-1; names of the RNAs are library labels; protein concentration not given here; high values mean tight binding.
The molecule B1 showed a binding signal of 0.401 enrichment R. B2 registered a binding signal of 0.863 enrichment R.

On to B3, for which the binding signal is 1.62 enrichment R. Molecule B4 returned a binding signal of 1.07 enrichment R.

B5 came in with a binding signal of 1 enrichment R. Then B6, with 0.766 enrichment R; and B7, with 0.494 enrichment R. Then B8, with 0.614 enrichment R; and B9, with 0.549 enrichment R. Then B10, with 0.455 enrichment R; and B11, with 0.422 enrichment R. For B12, the binding signal was found to be 0.93 enrichment R. Molecule B13 came in with a binding signal of 0.683 enrichment R.

B14: the binding signal worked out at 0.648 enrichment R.

In turn, B15 registered a binding signal of 0.685 enrichment R. With B16 the figure was 0.375 enrichment R; with B17, 0.589 enrichment R. Molecule B18 had a binding signal of 0.516 enrichment R. With B19 the figure was 0.253 enrichment R. Take B20: the binding signal is 0.315 enrichment R. Then B21, with 0.691 enrichment R; and B22, with 0.303 enrichment R.
